{"source": "paper PMC7819943", "about": "“Rice protein-binding microarrays: a tool to detect cis-acting elements near promoter regions in rice”", "note": "The list shows a part of the results."}
{"target": "T1, OsWOX13 (Oryza sativa, UniProt Q5QMM3 1-267)", "T1 sequence": "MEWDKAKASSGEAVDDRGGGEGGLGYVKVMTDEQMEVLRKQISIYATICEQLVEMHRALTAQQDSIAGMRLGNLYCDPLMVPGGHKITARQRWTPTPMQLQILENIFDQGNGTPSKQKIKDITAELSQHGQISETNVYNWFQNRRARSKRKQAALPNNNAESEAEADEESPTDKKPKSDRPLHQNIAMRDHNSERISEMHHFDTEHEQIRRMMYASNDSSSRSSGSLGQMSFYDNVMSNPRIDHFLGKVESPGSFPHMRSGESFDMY", "test": "protein-binding microarray (RPBM); PBS, 2% BSA, 51.3 ng/ul salmon testes DNA, 50 uM zinc acetate, 200 nM TF, 25 C, 1 h; high values mean tight binding", "details": "protein: recombinant; tags: N-terminal polyhistidine and DsRed monomer fusion (pET32a); label: CyDye5-dUTP incorporated in the synthesized complementary strand; 3' TTTTT single-stranded linker to array surface; dsDNA, one strand shown", "summary_of_the_method": "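Per-feature fluorescence intensity (arbitrary units), read on an Axon 4000B scanner, is the binding signal. Transcription factors carrying an N-terminal polyhistidine tag and DsRed fusion were expressed in E. coli BL21-CodonPlus and purified on Ni–NTA. A custom Agilent array, made double-stranded by primer extension with Cy5-dUTP and blocked with 2% BSA, was incubated with 200 nM protein in PBS, 2% BSA, salmon testes DNA and 50 µM zinc acetate at 25 °C for 1 h and then washed.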"}
{"sequence": "AGGCCTCTTAATTATTTCAAATGACATAGCTATTGACTGCCGGAGTCACCTAGTGCAG", "binding signal": "15100 fluorescence intensity (a.u.)"}
{"sequence": "AGCCTAATTAATCTATAATTAGAGAATGTTTACTGTAGCACGGAGTCACCTAGTGCAG", "binding signal": "46200 fluorescence intensity (a.u.)"}
{"sequence": "ATAGGTGACAGACCGGTAAATTCTTCCCGGGTGCACACGACGGAGTCACCTAGTGCAG", "binding signal": "3180 fluorescence intensity (a.u.)"}
{"sequence": "TTGTTTATTTTATCAATTGACGTGTTCATGCAATCCACAACGGAGTCACCTAGTGCAG", "binding signal": "6220 fluorescence intensity (a.u.)"}
{"sequence": "GAAGATTGGGCTTCGTGCACAAATTTGTTGCTGTCGTCGACGGAGTCACCTAGTGCAG", "binding signal": "6800 fluorescence intensity (a.u.)"}
{"sequence": "AAGTTAAATTTAGACGTTGAAACCCTGTTAAACATGTCCTCGGAGTCACCTAGTGCAG", "binding signal": "9350 fluorescence intensity (a.u.)"}
{"sequence": "ATATGAAATTTGGAAATTATGTTATATATGCATGAATTGTCGGAGTCACCTAGTGCAG", "binding signal": "4160 fluorescence intensity (a.u.)"}
{"sequence": "ATTAATAGAAAACTTAAATTGACTGAATGTATGTAGTTTTCGGAGTCACCTAGTGCAG", "binding signal": "31800 fluorescence intensity (a.u.)"}
{"sequence": "TAACACATCATTATCAATCTCTAGGCTTACATGAGATTAGCGGAGTCACCTAGTGCAG", "binding signal": "8620 fluorescence intensity (a.u.)"}
{"sequence": "ATAGATATTTTATTTAAATTTATAATATTAAAATATGTCACGGAGTCACCTAGTGCAG", "binding signal": "5780 fluorescence intensity (a.u.)"}
{"sequence": "ATGACTGATAATCTAAGACATGAAATAACTGAAATTCTGTCGGAGTCACCTAGTGCAG", "binding signal": "36100 fluorescence intensity (a.u.)"}
{"sequence": "TGTAACTGGATGACAAGTTGAGGGACCTTCGGTGGACTTTCGGAGTCACCTAGTGCAG", "binding signal": "4390 fluorescence intensity (a.u.)"}
{"sequence": "TCAATTTGTCAGCATTAATTAACTTCTTTTAACAAGAGAACGGAGTCACCTAGTGCAG", "binding signal": "13700 fluorescence intensity (a.u.)"}
{"sequence": "CGAAACACTTGGCAATTAATCAATTAATCAGCAACTAGTACGGAGTCACCTAGTGCAG", "binding signal": "14900 fluorescence intensity (a.u.)"}
{"sequence": "CTCTTCATTTTCATGATTGCATGAATGTTATTTTCCCATACGGAGTCACCTAGTGCAG", "binding signal": "7630 fluorescence intensity (a.u.)"}
{"sequence": "TACTAATCCAACAAATAATTTTGCTTGAGTTCATATGTTGCGGAGTCACCTAGTGCAG", "binding signal": "3140 fluorescence intensity (a.u.)"}
{"sequence": "TTGTCATTTAATTTTAGAAATAGAAAGGGAATAGACATATCGGAGTCACCTAGTGCAG", "binding signal": "4860 fluorescence intensity (a.u.)"}
{"sequence": "GCCAATCAGAGGTTATCATGTCGTAGCACTATTGTCAACTCGGAGTCACCTAGTGCAG", "binding signal": "3210 fluorescence intensity (a.u.)"}
{"sequence": "CCTTGATCGACGATCACTGCTCGGGGATCCAACCTAGATCCGGAGTCACCTAGTGCAG", "binding signal": "3140 fluorescence intensity (a.u.)"}
{"sequence": "AGTATCTATTATTAATTGTTTGTTCCATTCTGGCTTGTAGCGGAGTCACCTAGTGCAG", "binding signal": "12000 fluorescence intensity (a.u.)"}
{"sequence": "AAACAATTATCGATAATAAATATATCCTATTAGTACTTAGCGGAGTCACCTAGTGCAG", "binding signal": "13500 fluorescence intensity (a.u.)"}
{"sequence": "CGGATTAATTAGGCTTAATAAATTTGTCTCGCGGTTTATACGGAGTCACCTAGTGCAG", "binding signal": "44500 fluorescence intensity (a.u.)"}
{"sequence": "AGTGATAGAGATTATTAGAATACTATTCTCCTAATTAGTACGGAGTCACCTAGTGCAG", "binding signal": "17700 fluorescence intensity (a.u.)"}
{"sequence": "AGATTGATATAATTATCATTTATTTTATTGTAAGTTGTTTCGGAGTCACCTAGTGCAG", "binding signal": "23400 fluorescence intensity (a.u.)"}
{"sequence": "TTTCTTCGATTAATGTGGTAATTTCTAGCCTCCACAGTGACGGAGTCACCTAGTGCAG", "binding signal": "4220 fluorescence intensity (a.u.)"}
{"sequence": "TTTGGAATTGACAGCGCAAATGCAGTTGTCCTGGAGGATACGGAGTCACCTAGTGCAG", "binding signal": "26300 fluorescence intensity (a.u.)"}
{"sequence": "AAGACTAATTTCCAACGCTAATAAAATACTGCAAGGACAACGGAGTCACCTAGTGCAG", "binding signal": "4510 fluorescence intensity (a.u.)"}
{"sequence": "CTAAAATGTATATAATGAAATCTCAATTGGAATCTCATGCCGGAGTCACCTAGTGCAG", "binding signal": "6210 fluorescence intensity (a.u.)"}
{"sequence": "ATTGGTCAAATTTTAAATATTGATTTGCTTAGACTTCTTACGGAGTCACCTAGTGCAG", "binding signal": "5320 fluorescence intensity (a.u.)"}
{"sequence": "ATTATTTAATTAGTTCCTGGACTTTGTGTATTATACTACTCGGAGTCACCTAGTGCAG", "binding signal": "5360 fluorescence intensity (a.u.)"}
{"sequence": "AACAAACTGCCAGATAAATTACCCTTCTTCCAGCTCGGATCGGAGTCACCTAGTGCAG", "binding signal": "11000 fluorescence intensity (a.u.)"}
{"sequence": "TCTAATTAAACTCCCCATCAATTTTCAGCACCTCTACCAACGGAGTCACCTAGTGCAG", "binding signal": "19000 fluorescence intensity (a.u.)"}
{"sequence": "ATAAGATTAGCACACACACTAATCCAATTCCAACCCAATCCGGAGTCACCTAGTGCAG", "binding signal": "7050 fluorescence intensity (a.u.)"}
{"sequence": "CATAAATCAACCAAACTATATGTTTGCAGCACATCTGCACCGGAGTCACCTAGTGCAG", "binding signal": "7200 fluorescence intensity (a.u.)"}
{"sequence": "TTTGAATTATATCTAATTCAAATTTGAATTTGAATTCAAACGGAGTCACCTAGTGCAG", "binding signal": "4000 fluorescence intensity (a.u.)"}
{"sequence": "CTTGACTGAGATGCTGTTGATGAGACAGAAGAAGACAGAACGGAGTCACCTAGTGCAG", "binding signal": "13300 fluorescence intensity (a.u.)"}
{"sequence": "ATTCTTGATTTTGATGGCTCAATCAAGCATCAAAACGTGCCGGAGTCACCTAGTGCAG", "binding signal": "36500 fluorescence intensity (a.u.)"}
{"sequence": "CTTAGCATGCAGGTCATTGATTGATGATGCACGCTCGTTGCGGAGTCACCTAGTGCAG", "binding signal": "4100 fluorescence intensity (a.u.)"}
{"sequence": "TAACCACTGAAGACATCATGATTGCTACTAGTTTACAATCCGGAGTCACCTAGTGCAG", "binding signal": "5790 fluorescence intensity (a.u.)"}
{"sequence": "TTGATTCAATAAATGGAGAATGTAATAATTTTATATGTAGCGGAGTCACCTAGTGCAG", "binding signal": "4110 fluorescence intensity (a.u.)"}
{"sequence": "CTACCATCATTTTGGGCTCTAATGTTTCAAATGACATTCCCGGAGTCACCTAGTGCAG", "binding signal": "11400 fluorescence intensity (a.u.)"}
{"sequence": "CTTAATTGGAATCCGACAGTGGGTAATGGAGGAGATGGGCCGGAGTCACCTAGTGCAG", "binding signal": "51900 fluorescence intensity (a.u.)"}
